Data taken from the supplement of paper PMC10126150.
Values marked as one replicate rest on one cluster of the flow cell; about a third of the high ones do not repeat.

System: ATP
Assay: switch fluorescence ratio, 500 uM ATP over buffer (Cy3 cluster intensity, sum of 5 cycles each) (fold (ratio)); higher = stronger signal-on switching upon ATP binding; sequences stand for … in TCGTCGGCAGCGTCAGATGTGTATAAGAGACAGTTTTTTTTTTTTTTTTTTTTTTTTT…TC
Details: aptamer strand: ATP DNA aptamer (quencher-CACCTGGGGGAGTATTGCGGAGGAAGG + anchor), 100 nM annealed; ATP concentration: 500 uM; one replicate
Summary of the method: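 Exposure to 500 uM ATP lasted 15 min at 22 °C before imaging, and a selection-buffer image was taken beforehand, for Cy3-labelled switching-strand clusters on a modified Illumina MiSeq flow-cell annealed to 100 nM quencher-labelled ATP aptamer. Five buffer/ATP cycles were run with NaOH stripping and re-annealing between them. The fluorescence ratio per cluster is summed target-cycle over summed buffer-cycle Cy3 intensity, averaged per switch-domain sequence. Clusters outside 100-1000 RFU were excluded.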

Sequence | switch fluorescence ratio
GAGTTATTGC | 0.969
GAAAATCGTC | 1.04
CAGTTTAGGA | 0.991
TATTTCGTCA | 0.99
CAGTCTGGAT | 0.989
GCCAGCCGCC | 1.09
GTTACGCCCT | 1.06
CGGCCAGAAG | 0.963
GGGTAAAGT | 1.02
TTTACACAT | 1.05
AACTAAGAG | 1.02
GCCAGGTTGC | 1.22
TAAGATGCTG | 0.997
AGCGGCCACT | 1.01
ATAAATTCG | 0.998
TGAGTCTAGC | 1.07
TTATTGTGGC | 1.01
CAGGGGGAGT | 0.957
TAGTAGGAAC | 0.994
CGAGGAGACC | 1.01
CAACCCGG | 1.02
TAGGGGGACA | 0.989
ACGGCGGTTT | 1.01
GATCGACTAA | 1.01
ACGGATCTGA | 1.03
CTCTTCCCAA | 2.43

Sequence | switch fluorescence ratio
CCTCTCGGTT | 1.56
TCGAAGCAGT | 3.64
GAATAGAAAG | 0.978
CAGGAGATGG | 1.06
TGCATCTGAC | 1.09
CATACACTCG | 1.04
GGATATCTAG | 1.01
GACGTGTACT | 1.2
AATGGTGTGA | 1.01
CCCTTCGGG | 0.931
GAGCCGCACT | 1.1
ATAGCAACGG | 1.04
GGTTTGTGCA | 0.972
TTACAATC | 1.03
TCGTCTTTGT | 1.01
TGATATGTCG | 0.857
GCTTTGGAGA | 1.03
CCATTGCACA | 1.41
CACTCAGGCC | 1.03
ACACAGGAC | 2.1
CCCACTATAA | 1.1
TCAAGCGGAG | 1.05
GTAAGGACTT | 1.03
TCAGACCGTC | 1.04
GAAACCGCGT | 1.13
GAGGTGTTAG | 0.991

Sequence | switch fluorescence ratio
CCGCTTCCG | 1.2
CATCGCCCAG | 1.19
CAAGTTCATC | 1.01
CTCGACGGCA | 1.14
AGGGAGGTAT | 0.941
ACATCGTCAC | 1.05
GATTTTTTAA | 0.99
AGATGAATCC | 0.957
CAGACTGGCG | 0.964
TATGTCAGGG | 0.995
TACGCAGGAT | 1.15
CCGATGTATG | 1.26
AATTAGGGTT | 0.955
ATACCAGTCG | 0.928
GGTTGCATGC | 0.999
CCCGATGGGA | 0.951
TGTGGTCGGA | 0.983
CGGGCTATTT | 1
ACTAATACCC | 1.12
TGCTCGTACA | 1.02
CGAGGACCTG | 1.04
ACCCTGCTGT | 1.04
TGAGAAGATG | 1.01
AAGCCCAGTC | 1.11
AGTTTGGTAG | 0.989
AGCGAATCCC | 1.16

Sequence | switch fluorescence ratio
AGAAACACCT | 1.35
TTCGCATTTT | 1.03
GGTTGGATAC | 0.984
GTATGTGGTA | 0.967
TTGGAAATAT | 0.996
AGGGCTAGGT | 0.922
TTCGTCCTCA | 1.09
CTTTCAAGGC | 1.21
TGGATGGTCA | 0.968
GTCAATATTA | 1.02
GTGGCGAGCG | 1.01
GGATTTCGGT | 1
ACGCAACGCT | 1.45
TACGTTAGAG | 1.08
CCGGAGAATC | 5.19
GGTACCGGGA | 0.956
CTACATATGG | 1.02
CTGTCCTTCA | 1.02
CTAGATCCTG | 1
AACTGAGACA | 1.03
TCTGATTGGC | 1.01
CTCCCCTCTG | 1.82
CGGCTTCTTA | 0.972
CAATGCCGTT | 1.02
TGTGGACCCT | 1
ATCACCGAAG | 1.05

Sequence | switch fluorescence ratio
GGACTATAGA | 1.03
ACAGATGTAT | 1.04
CAGCAGGGC | 1.19
AGATACGCTG | 0.956
AGATGGCACC | 1.04
ACGGTAGAAT | 1.05
AGAAATGTCT | 0.98
GGGATTCCCA | 0.917
TGGGGACGCA | 0.986
TTCTCATGAG | 1
ATAGGCGCCG | 1.01
TCGGTGGACG | 1.14
ATCCAGATA | 1.03
CTGCTGGCTT | 1.06
AGCAGATTAA | 0.992
ACGTCCAGAG | 1.1
GTGCACCGGA | 1.01
CGCACGCACC | 1.91
AGGTTAGTTA | 0.988
ATGACTTGG | 0.95
AAGTATCGGC | 0.984
GACGTTACGT | 1.15
ATGCATTGAA | 0.981
ACATGACGT | 1.12
TTAGTATTGA | 0.987
TATTTCGACC | 1.05

Sequence | switch fluorescence ratio
AACTATCACG | 1.14
TGGCGCTATG | 1.01
ATAAGCCGCC | 1.1
GCAACTGAGA | 1.04
GGTGGGTTCT | 1.14
TCGCACGGGA | 1.06
AGGTCTATGT | 0.986
ATTACCCCTG | 1.15
TTGTCATACT | 1.32
TTATACATTA | 1.03
TTGTCCAGCA | 1
GAGTTTTGAT | 1.03
CTAATGGGGG | 0.962
GGGATGAGAC | 1.05
GAAATTAAAA | 0.938
CTGATTTATA | 0.992
ACATGTTCCG | 0.996
CTTGTACATA | 0.987
CGTTTTCAAA | 0.989
GTTTGGTCGC | 0.973
CTACAAGTAG | 1.03
CCGCCCTGGC | 1.27
GCCTTTTAAT | 1.02
